Values joined by “and” are separate entries in the source; they are usually repeats but may differ in a detail not shown here. Identical values can stand only once. Some of the results follow.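 How the source made its calls: active = GRHL reporter fold change of at least 2 over DMSO at 10 µM; inactive = below 2-fold.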 Single values are uncertain, as repeats are few or missing.
system: HEK293 GRHL-luciferase reporter; experiment: GRHL luciferase reporter activity, fold change over DMSO control; higher = stronger GRHL reporter activation; settings: 10 µM; 24 h
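Further: stable HEK293 line carrying repeated GRHL consensus sites upstream of a minimal promoter driving luciferase, luminescence read 24 h post-treatment, normalized to 0.5% DMSO vehicle wells.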

**Q.** `O=c1c(O)c(-c2cc(O)c(O)c(O)c2)oc2cc(O)cc(O)c12` was tested. Which “GRHL luciferase reporter activity” value did it give?
**A.** Its value is active: 3.65.

**Q.** `COc1ccc(/C=C/C(=O)O)cc1OC` was tested. Which “GRHL luciferase reporter activity” value did it give?
**A.** The value was inactive: 0.941.

**Q.** With `CNC(=O)c1c(I)c(NC(C)=O)c(I)c(C(=O)O)c1I` as the compound, how does the “GRHL luciferase reporter activity” value read?
**A.** The value was inactive: 0.905.

**Q.** How did the “GRHL luciferase reporter activity” value turn out when `CCn1cc(C(=O)O)c(=O)c2cnc(N3CCCC3)nc21` was run?
**A.** Its value is inactive: 1.01.

**Q.** With `Cc1c(-c2cnccn2)ssc1=S` as the compound, how does the “GRHL luciferase reporter activity” value read?
**A.** Its value is inactive: 1.1.

**Q.** For `CC1(C)NC(=O)N(c2ccc([N+](=O)[O-])c(C(F)(F)F)c2)C1=O`, which “GRHL luciferase reporter activity” value is on record?
**A.** Its value is inactive: 1.16.

**Q.** `COc1ccc(-c2cc(=O)c3c(O)cc(O[C@@H]4O[C@H](CO[C@@H]5O[C@@H](C)[C@H](O)[C@@H](O)[C@H]5O)[C@@H](O)[C@H](O)[C@H]4O)cc3o2)cc1O` was tested. Which “GRHL luciferase reporter activity” value did it give?
**A.** Its value is inactive: 1.

**Q.** For `CC12CCC(CC1)C(C)(C)O2`, which “GRHL luciferase reporter activity” value is on record?
**A.** Its value is inactive: 0.949.

**Q.** How did the “GRHL luciferase reporter activity” value turn out when `CN1CCN2c3ncccc3Cc3ccccc3C2C1` (centres undefined) was run?
**A.** The value was inactive: 1.22.

**Q.** For `Cc1ccc2c(Cl)cc(Cl)c(O)c2n1`, which “GRHL luciferase reporter activity” value is on record?
**A.** The value was inactive: 0.962.

**Q.** For `O=C(Oc1cccc2cccnc12)c1ccccc1`, which “GRHL luciferase reporter activity” value is on record?
**A.** The value was inactive: 0.872.

**Q.** How did the “GRHL luciferase reporter activity” value turn out when `COC(=O)/C(C)=C\CC12OC(C)(C)C3CC(C=C4C(=O)c5c(c(CCC(C)(C)Cl)c6c(c5OC)C5CC(C)(CCC5=C(C)C)O6)OC431)C2=O` (centres undefined) was run?
**A.** The value was inactive: 0.0148.

**Q.** For `CCN1C(=O)NC(c2ccccc2)C1=O` (centres undefined), which “GRHL luciferase reporter activity” value is on record?
**A.** Its value is inactive: 1.07.

**Q.** `c1ccc2c(Cc3c[nH]c4ccccc34)c[nH]c2c1` was tested. Which “GRHL luciferase reporter activity” value did it give?
**A.** The value was inactive: 0.886.

**Q.** With `COCCOC(=O)C1=C(C)NC(C)=C(C(=O)OC/C=C/c2ccccc2)C1c1cccc([N+](=O)[O-])c1` (centres undefined) as the compound, how does the “GRHL luciferase reporter activity” value read?
**A.** Its value is inactive: 1.24.

**Q.** With `OC[C@@H](O)[C@@H](O[C@@H]1O[C@H](CO)[C@H](O)[C@H](O)[C@H]1O)[C@H](O)[C@@H](O)CO` as the compound, how does the “GRHL luciferase reporter activity” value read?
**A.** The value was inactive: 0.89 and inactive: 1.09.

**Q.** Which “GRHL luciferase reporter activity” value does the source give for `CN(C)c1cc(NC(=O)CNC(C)(C)C)c(O)c2c1C[C@H]1C[C@H]3[C@H](N(C)C)C(=O)C(C(N)=O)=C(O)[C@@]3(O)C(=O)C1=C2O` here?
**A.** Its value is inactive: 0.977.

**Q.** `Cc1cnc(NC(=O)C2=C(O)c3ccccc3S(=O)(=O)N2C)s1` was tested. Which “GRHL luciferase reporter activity” value did it give?
**A.** Its value is inactive: 1.2.

**Q.** How did the “GRHL luciferase reporter activity” value turn out when `CC(=O)O[C@]1(C(C)=O)CC[C@H]2[C@@H]3C=C(Cl)C4=CC(=O)CC[C@]4(C)[C@H]3CC[C@@]21C` was run?
**A.** The value was inactive: 0.674.

**Q.** Which “GRHL luciferase reporter activity” value does the source give for `COc1cc(/C=C/c2ccc(O)cc2)cc(OC)c1` here?
**A.** Its value is active: 7.63.

**Q.** How did the “GRHL luciferase reporter activity” value turn out when `CCCCCCCCCCCCCCCCOc1nc2ccc(C)cc2c(=O)o1` was run?
**A.** Its value is inactive: 0.909.

**Q.** Which “GRHL luciferase reporter activity” value does the source give for `COC(=O)Nc1nc2cc(C(=O)c3cccs3)ccc2[nH]1` here?
**A.** The value was inactive: 1.11.

**Q.** How did the “GRHL luciferase reporter activity” value turn out when `N=C(N)NC(=O)Cc1c(Cl)cccc1Cl` was run?
**A.** Its value is inactive: 1.14.

**Q.** How did the “GRHL luciferase reporter activity” value turn out when `COc1cc2c(cc1OC)C1C(=O)c3c(O)cc4c(c3OC1CO2)C=CC(C)(C)O4` (stereo not drawn) [alpha-TOXICAROL (dl)] was run?
**A.** Its value is active: 8.62.

**Q.** How did the “GRHL luciferase reporter activity” value turn out when `CC[C@@H](CO)NCCN[C@@H](CC)CO` was run?
**A.** Its value is inactive: 0.911.

**Q.** Which “GRHL luciferase reporter activity” value does the source give for `Cc1cc2nc3c(=O)[nH]c(=O)nc-3n(C[C@H](O)[C@H](O)[C@H](O)CO)c2cc1C` here?
**A.** Its value is inactive: 1.06.

**Q.** Which “GRHL luciferase reporter activity” value does the source give for `C=C1C[C@H]2[C@@H]3C=C(C)C4=CC(=O)CC[C@]4(C)[C@H]3CC[C@]2(C)[C@@]1(OC(C)=O)C(C)=O` here?
**A.** Its value is inactive: 1.91.

**Q.** How did the “GRHL luciferase reporter activity” value turn out when `Cc1cnc(C(=O)O)c[n+]1[O-]` was run?
**A.** Its value is inactive: 0.883.

**Q.** With `NS(=O)(=O)c1cc2c(cc1Cl)NCNS2(=O)=O` as the compound, how does the “GRHL luciferase reporter activity” value read?
**A.** Its value is inactive: 0.99.

**Q.** With `COc1cc(C(=S)N2CCOCC2)ccc1O` as the compound, how does the “GRHL luciferase reporter activity” value read?
**A.** The value was inactive: 1.03.

**Q.** `C[N+](C)(C)CCOP(=O)(O)OP(=O)([O-])OC[C@H]1O[C@@H](n2ccc(N)nc2=O)[C@H](O)[C@@H]1O` was tested. Which “GRHL luciferase reporter activity” value did it give?
**A.** The value was inactive: 1.11.

**Q.** Which “GRHL luciferase reporter activity” value does the source give for `CNCC[C@H](Oc1cccc2ccccc12)c1cccs1` here?
**A.** The value was inactive: 0.705.

**Q.** With `CN(C(=O)CN(CCO)CC(=O)N(C)C(C)(C)Cc1ccccc1)C(C)(C)Cc1ccccc1` as the compound, how does the “GRHL luciferase reporter activity” value read?
**A.** The value was inactive: 1.02.

**Q.** With `CC(C)(O)c1ccccc1CC[C@@H](SCC1(CC(=O)O)CC1)c1cccc(/C=C/c2ccc3ccc(Cl)cc3n2)c1` as the compound, how does the “GRHL luciferase reporter activity” value read?
**A.** Its value is inactive: 0.997.

**Q.** Which “GRHL luciferase reporter activity” value does the source give for `CCCCCCCCCCCCCCCC(=O)OC[C@H](O)[C@H]1OC(=O)C(O)=C1O` here?
**A.** The value was inactive: 1.55.

**Q.** `CCOC(=O)[C@H](CCc1ccccc1)N[C@@H](C)C(=O)N1CCC[C@H]1C(=O)O` was tested. Which “GRHL luciferase reporter activity” value did it give?
**A.** The value was inactive: 1.11.

**Q.** How did the “GRHL luciferase reporter activity” value turn out when `CC1=C(CC(=O)O)c2cc(F)ccc2/C1=C\c1ccc([S+](C)[O-])cc1` (centres undefined) was run?
**A.** Its value is inactive: 0.938.

**Q.** With `NC(=O)[C@@H]1CCCN1C(=O)[C@H](Cc1c[nH]cn1)NC(=O)[C@@H]1CCC(=O)N1` as the compound, how does the “GRHL luciferase reporter activity” value read?
**A.** The value was inactive: 0.939.

**Q.** Which “GRHL luciferase reporter activity” value does the source give for `N[C@@H](Cc1ccccc1)C(=O)O` here?
**A.** The value was inactive: 0.942.

— the supplement of paper PMC8748497
